Laboratory results: the supplement of paper PMC9513381
Positions count from the first letter of the chain named. Recombinant human monoclonal antibodies (heavy:light variable regions). ELISA EC50 on the named antigen, from 10 µg/ml down; IC50 / IC90 against spike pseudovirus on 293T-ACE2 cells, 48 h; lower = stronger. Calls: IC50 above 1,000 ng/ml = non-neutralizing; EC50 above 1,000 ng/ml = non-binder. The source prints 1000 for neutralization that was not reached; it is given as >1000 ng/ml. Only binders of the Wuhan-Hu-1 domain have neutralization values.

B1: B2104 (protein)
chain 1: EVQLVQSGAEVKKPGESLKISCKGSGYMFTSSWIAWVRHMPGKGLEWMGIIHPGDSDTRYSPSFQGQVTFSADKSISTAYLQWSSLKASDTAMYYCASYGGIYHGWLDPWGQGTLVTVSS
chain 2: QSVLTQPPSASGTPGQRVTISCSGSSSNIGTNPVNWYQQLPGTAPKLLIYNNHQRPSGVPDRFSGSKSATSASLAISGLQSEDEADYYCATWDDSLNGYVFGTATKVTVL
B2: B1082 (protein)
chain 1: QVQLVESGGGVVQPGRSLRLSCAVSGFTFSRYGMHWVRQAPGKGLEWVGVILYDGSNEYYADSVKGRFTISRDNSKNTLYLQINSLRVEDTAVYYCAKASGPYCGGGDCYSAFFDYWGQGTLVTVSS
chain 2: DIQMTQSPSTLSASVGDRVTITCRASQSISRWLAWYQQKPGKAPKVLIYEASSLESGVPSRFSGSGSGTEFTLTISSLQPDDFATYYCQQYNSYSSFGQGTKLEIK
B3: B1083 (protein)
chain 1: B2 chain 1
chain 2: DIQMTQSPSSLSAYVGDRVTITCQASQDISNYLHWYQQKSGKAPTLLIYDASNLQTGVPSRFRGSGSGTDFTLTISSLQPEDFATYYCQQYDNLPPTFGGGTKVEIK
B4: B1079 (protein)
chain 1: EVQLVESGGGLVQPGRSLRLSCAASGFTFDDYAMHWVRQAPGKGLEWVSGISWNSGSTGYADSVKGRFTISRDNAKNSLYLQMSSLRAEDTAFYYCAKGTIGVPLRECYFDYWGQGTLVTVSS
chain 2: QSVLTQPRSVSGSPGQSVTISCTGTSSDVGGYDYVSWYQQHPGKAPKLMIYDVSERPSGVPDRFSGSKSGNAASLTISGLQAEDEADYYCCSYAGSYLLVFGGGTKLTVL
B5: B1081 (protein)
chain 1: B4 chain 1 with G9R, T58I, A61V, S78T, S84N, F93L, G102A, Y109S, F110L
chain 2: QSVLTQPASVSGSPGQSITISCTGTSSDVGGYDYVSWYQQHPGKAPKLMIYEVSNRPSGVSNRFSGSKSGNTASLTISGLQAEDDADYYCSSYTSSITRYVFGTGTKVTVL
B6: B1085 (protein)
chain 1: EVQLVESGGGLVQPGGSLRLSCGASGFTFSTYDMHWVRQTTETGLEWVSAIGTAGDTYYRDSVKGRFTISRENAKNSLYLQMNSLRAGDTAVYYCARGLNSDNYAVWAFDIWGQGTMVTVSS
chain 2: DIQMTQSPSSLSASVGDRVTITCRARQSIGTYLNWYQQKPGKAPKLLIHAASNLQSGVPSRFSGSGSGTDFTLTISSLQPEDFATYYCQQSYSNPPTTFGPGTKVDIK
B7: B1078 (protein)
chain 1: QVQLVQSGAEVKKPGASVKVSCKASGYTFTSYDINWVRQATGQGLEWMGWMNPHSGNTGYARTFQGRVTVTRNTSISTAYMELSSLRSEDTAVYYCAITYEAHDILTGCLDSWGQGTLVTVSS
chain 2: SYVLTQPPSVSVAPGQTARITCGGDYIGSKNVHWYQLRPGQAPVLVVYDDSDRPSGIPERFSGSNSGNTATLTISRVEAGDEADYYCQVWDSSSDQLYVFGAGTKVTVL

Assays:
[1] = target: SARS-CoV-2 Wuhan-Hu-1 spike pseudovirus; assay: pseudovirus neutralization IC50; higher = weaker neutralization
Procedure: (§1)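 Single-round luciferase reporter pseudovirus mixed with antibody dilutions and put on 293T-ACE2 cells for 48 h; signal relative to no-antibody wells, four-parameter fit.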

[2] = target: SARS-CoV-2 Wuhan-Hu-1 spike pseudovirus; assay: pseudovirus neutralization IC90; higher = weaker neutralization
Procedure: as §1

[3] = target: SARS-CoV-2 Delta (B.1.617.2) spike RBD; assay: ELISA binding EC50; higher = weaker binding; ELISA of recombinant human antibody on coated antigen, from 10 µg/ml in fourfold dilutions; four-parameter fit.
[4] = target: SARS-CoV-2 Omicron BA.1 spike protein; assay: as above
[5] = target: SARS-CoV-2 Wuhan-Hu-1 spike receptor-binding domain; assay: as above

Row | Binder | pseudovirus neutralization IC50 [1] [µg/mL] | pseudovirus neutralization IC90 [2] [µg/mL] | ELISA binding EC50 [3] [µg/mL] | ELISA binding EC50 [4] [µg/mL] | ELISA binding EC50 [5] [µg/mL]
1 | B1 | > 1 | > 1 | 0.0155 | 0.0463 | 0.00769
2 | B2 | > 1 | > 1 | 0.0137 | 0.00343 | 0.00479
3 | B3 | 0.215 | > 1 | 0.552 | 0.0902 | 0.0069
4 | B4 | 0.025 | 0.804 | 0.0235 | > 1 | 0.00336
5 | B5 | 0.00775 | 0.424 | 0.0122 | > 1 | 0.00242
6 | B6 | 0.245 | > 1 | 0.0311 | 0.0127 | 0.00244
7 | B7 | > 1 | > 1 | 0.0225 | 0.0882 | 0.00306
